Test results from PMC10233385, “Preparation of Mycobacterium smegmatis porin A (MspA) nanopores for single molecule sensing of nucleic acids” (Biophysics Reports, 2021).

Molecular target: the molecule itself
Assay: SDS-PAGE (oligomer that stays together in SDS); fractions of the Ni-affinity elution on a 4%-20% SDS-polyacrylamide gradient gel, 27 min at +200 V, Coomassie stain; the band around 100 kDa is taken as the MspA octamer

B1: M2 MspA mutant (D90N/D91N/D93N/D118R/D134R/E139K) of Mycobacterium smegmatis porin A (natural protein, UniProt A0QR29 28-211, looked up)
chain: GLDNELSLVDGQDRTLTVQQWDTFLNGVFPLDRNRLTREWFHSGRAKYIVAGPGADEFEGTLELGYQIGFPWSLGVGINFSYTTPNILINNGNITAPPFGLNSVITPNLFPGVSISARLGNGPGIQEVATFSVRVSGAKGGVAVSNAHGTVTGAAGGVLLRPFARLIASTGDSVTTYGEPWNMN
notes: Mycobacterium smegmatis porin A (MspA), M2 mutant; it is probably the mature porin without it (surmise); also called MspA octamer; MspA nanopore; not shown: His6, C-terminal, kept
  stoichiometry N: 8
